Data published in a compilation of properties of binary mixtures (doi:10.1021/ie5008568).
Some of these densities may be calculated back from excess volumes.

Experiment: xn = mol fraction of the nth substance listed
Conditions: 100 kPa

OCC(F)(F)F + CCCC[n+]1ccn(C)c1.O=S(=O)([N-]S(=O)(=O)C(F)(F)F)C(F)(F)F
mass density [kg/m3]
Conditions | 283.15 K | 293.15 K | 303.15 K | 313.15 K | 323.15 K | 333.15 K
x1 = 0.0991 | 1449 | 1439 | 1429.1 | 1419.3 | 1409.7 | 1400.1
x1 = 0.2953 | 1446 | 1435.6 | – | 1415 | – | 1395
x1 = 0.5341 | 1440.5 | – | – | – | 1396.5 | 1385.7
x1 = 0.6727 | 1435.9 | – | 1412.1 | 1400.4 | – | 1377
x1 = 0.9 | 1422.6 | 1408.4 | 1394.1 | 1379.6 | 1365.1 | 1350.4
x1 = 1 | 1406.9 | 1390.1 | 1372.8 | 1355 | 1336.8 | 1318.2

OCC(F)(F)F + CC[n+]1ccn(C)c1.F[B-](F)(F)F
mass density [kg/m3]
Conditions | x1 = 0.1206 | x1 = 0.2915 | x1 = 0.5217 | x1 = 0.7181 | x1 = 0.9009 | x1 = 1
293.15 K | 1291.6 | 1302.8 | 1321.9 | 1343.6 | 1373.7 | –
303.15 K | 1283.6 | 1294.2 | – | 1332.1 | – | 1372.8
313.15 K | 1275.7 | 1285.8 | 1302.6 | 1320.7 | – | –
323.15 K | 1268 | 1277.5 | 1293.1 | 1309.4 | – | –
333.15 K | 1260.3 | 1269.4 | 1283.7 | – | – | –

CCCC[n+]1ccn(C)c1.O=S(=O)([N-]S(=O)(=O)C(F)(F)F)C(F)(F)F + OCC(F)(F)F
x2 = 0
Conditions | mass density [kg/m3]
283.15 K | 1450.6
293.15 K | 1440.7
313.15 K | 1421.1
323.15 K | 1411.5
333.15 K | 1402.1

CC[n+]1ccn(C)c1.F[B-](F)(F)F + OCC(F)(F)F
x2 = 0
Conditions | mass density [kg/m3]
293.15 K | 1284.7
303.15 K | 1277
333.15 K | 1254.5
